Measured values taken from PubChem BioAssay AID1476 (National Center for Advancing Translational Sciences (NCATS), 2009).
Among all 200,000 compounds or so, about 4,500 (2.2%) were called active. Inconclusive results, whose numbers are uncertain, are shown with a selection of clear calls. Calls come from the whole dose curve; as a rule, active = well fitted inhibition curve with a large enough effect; inconclusive = small, poorly fitted or top-dose-only effect, or effect the other way; inactive = flat fitted curve, though single readings scatter. Potencies of inconclusive entries are doubtful fits and often do not repeat.
Note: nearly all actives have a fitted effect of over 40% in size.
Potency is the fitted concentration of half-maximal effect; tags give direction and shape of the fitted curve.
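Throughout, for max response, negative = inhibition: plate controls were enzyme without inhibitor for no effect and buffer without enzyme for full effect.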

Each compound was assayed against Cruzipain (Trypanosoma cruzi) (UniProt P25779) (assay: qHTS Assay for Promiscuous and Specific Inhibitors of Cruzain (without detergent)). Settings: purified cruzain, Z-FR-AMC fluorescence, no detergent.
Sequence of UniProt P25779 (P25779 whole entry, looked up): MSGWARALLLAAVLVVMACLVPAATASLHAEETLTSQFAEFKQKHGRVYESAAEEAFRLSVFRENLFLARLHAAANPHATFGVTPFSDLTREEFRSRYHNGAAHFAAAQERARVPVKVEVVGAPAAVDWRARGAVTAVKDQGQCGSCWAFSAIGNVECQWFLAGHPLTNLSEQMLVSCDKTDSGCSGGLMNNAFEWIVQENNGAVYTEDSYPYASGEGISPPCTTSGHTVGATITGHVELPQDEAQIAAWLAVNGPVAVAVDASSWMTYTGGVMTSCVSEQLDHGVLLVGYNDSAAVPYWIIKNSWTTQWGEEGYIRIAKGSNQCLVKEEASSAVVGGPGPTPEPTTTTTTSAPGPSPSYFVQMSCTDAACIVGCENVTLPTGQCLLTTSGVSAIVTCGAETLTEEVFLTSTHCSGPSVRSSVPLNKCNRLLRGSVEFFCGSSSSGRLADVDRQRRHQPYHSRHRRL
Procedure, shortened: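 Purified cruzain at 1.5 nM, pre-incubated 15 min with compound at room temperature in 100 mM sodium acetate pH 5.5, 5 mM DTT, 0.00005% Triton X-100. Reaction started with 2 uM Z-FR-AMC; AMC fluorescence increase over 60 s gives rate.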
`CC(C)c1c(O)ccc2c1CCC1C(C)(C)CCC[C@@]21C` (stereo partly specified) was tested, and the max response, negative = inhibition was inactive: -1.89%.
`CC(C)NS(=O)(=O)c1ccc2nc(NC(=O)c3cncc(Br)c3)sc2c1` was tested, and the max response, negative = inhibition was inactive: 8.26%.
`COC(=O)c1ccc(C(=O)OC)c(NC(=S)N2CCN(c3cccc(Cl)c3)CC2)c1` was tested, and the Potency was inconclusive: 31.6 µM [inhibitor, single point].
`COc1ccc(NC(=O)c2ccc3c(c2)CCN3S(=O)(=O)c2ccc(C)cc2)cc1Cl` was tested, and the Potency was active: 7.94 µM.
In the case of `CCOC(=O)c1cccc(NC(=O)C(C)n2c(C)c3cnn(-c4ccccc4)c(=O)c3c2C)c1` (stereo unspecified), the Potency is reported as inconclusive: 39.8 µM [activator, single point].
With `COc1cc2cc(CN(Cc3nnnn3Cc3ccccc3)CC3CCCO3)c(=O)[nH]c2cc1OC` (stereo unspecified) the Potency was inconclusive: 39.8 µM [activator, single point].
With `Cc1cc2oc(=O)cc(-c3ccccc3)c2c(C)c1-c1sccc1C=O` the Potency was inconclusive: 35.5 µM [inhibitor, single point].
`Cc1ccc(C)c(NC(=S)NC(NC(=O)OCc2ccccc2)C(Cl)(Cl)Cl)c1` (stereo unspecified) was tested, and the Potency was inconclusive: 39.8 µM [inhibitor, single point].
`Cc1ccc(N(C)C(=O)C2CCN(S(=O)(=O)c3ccc4c(c3)CCCN4C(=O)C3CCC3)CC2)cc1` was tested, and the Potency was inconclusive: 39.8 µM [activator, single point].
In the case of `CCOc1cc(N2CCOCC2)c(OCC)cc1NC(=O)c1ccc(=O)n(Cc2ccccc2)n1`, the Potency is reported as inconclusive: 31.6 µM [activator, single point].
`COc1ccc(S(=O)(=O)N2CCC(n3c(C(F)(F)F)nc4cccnc43)CC2)cc1OC` was tested, and the Potency was inconclusive: 39.8 µM [activator, single point].
With `COc1ccc(C(=O)CN2C(=O)N(c3ccc(C(C)=O)cc3)S(=O)(=O)c3ccccc32)cc1` the Potency was inconclusive: 39.8 µM [inhibitor, single point].
For `Cc1cc(C)c(S(=O)(=O)N2CCN(CCN3C(=O)c4cccc5cccc(c45)C3=O)CC2)cc1[N+](=O)[O-]`, the Potency was inconclusive: 31.6 µM [inhibitor, single point].
`Cc1nc2ccc(S(=O)(=O)N(C)CC(=O)Nc3ccc(Br)c(C)c3)cc2s1` was tested, and the max response, negative = inhibition was inactive: -4.72%.
In the case of `COc1ccc(CCN2C(=O)c3oc4ccc(F)cc4c(=O)c3C2c2ccc(C(C)(C)C)cc2)cc1` (stereo unspecified), the max response, negative = inhibition is reported as inactive: 3.35%.
For `O=C(CSCC(=O)N1CCCc2ccccc21)Nc1nc(-c2ccccc2)cs1`, the Potency was inconclusive: 25.1 µM [inhibitor, single point].
For `Cc1ccccc1NC(=O)N1CCCC1C(=O)NCc1cccs1` (stereo unspecified), the max response, negative = inhibition was inactive: 0.343%.
In the case of `CC1=NN(C(N)=S)C(=O)C1N=Nc1ccccc1C` (stereo unspecified), the Potency is reported as active: 25.1 µM.
`CCc1ccc(C(=O)COC(=O)C(Cc2c[nH]c3ccccc23)NC(=O)c2ccc(Br)cc2)cc1` (stereo unspecified) was tested, and the Potency was inconclusive: 7.94 µM [inhibitor, single point].
In the case of `COc1ccc(S(=O)(=O)N(CCc2ccccc2)CC(=O)Nc2cccc(OC)c2)cc1`, the max response, negative = inhibition is reported as inactive: -10.9%.
For `CCOc1ccc2nc(N3CCC(C(=O)N4CCN(C(=O)c5ccco5)CC4)CC3)sc2c1`, the Potency was inconclusive: 25.1 µM [activator, single point].
With `Cn1c(N2CCCC2)nc2c1c(=O)n(Cc1ccc(Cl)cc1)c(=O)n2C` the Potency was inconclusive: 39.8 µM [activator, single point].
With `N#Cc1c(OCC(=O)c2ccccc2)nc2c(c1-c1ccco1)CCc1ccccc1-2` the Potency was active: 7.94 µM.
For `COc1ccc(/C=c2/sc3n(c2=O)NC2(c4ccccc4)N(C)C(=O)N(C)C2(c2ccccc2)N=3)cc1` (stereo unspecified), the Potency was inconclusive: 39.8 µM [inhibitor, single point].
In the case of `Cc1c(/C=C(\C#N)C(=O)Nc2cccc(Cl)c2)c2ccccc2n1Cc1ccccc1Cl`, the Potency is reported as active: 1.58 µM.
For `CCOc1ccc(C2=NC(c3cccs3)=Nc3ccc(C(C)C)cc3N2)cc1`, the Potency was active: 3.16 µM.
In the case of `Cc1cccc(CC2C(=O)Nc3ccccc32)c1` (stereo unspecified), the max response, negative = inhibition is reported as inactive: 5.22%.
For `COc1ccc(/C=N/NC(=O)c2ccccc2O)cc1Cn1cc(Cl)cn1`, the Potency was inconclusive: 20 µM [inhibitor, single point].
`O=C(NCCC1=CCCCC1)C(=O)NCc1ccccc1Cl` was tested, and the Potency was inconclusive: 31.6 µM [inhibitor, single point].
For `COc1ccc(-c2nc3sc(CCNC(=O)c4cc(Cl)ccc4OC)c(C)n3n2)cc1`, the Potency was inconclusive: 39.8 µM [activator, single point].
With `CC1=NN(c2nc(-c3ccc(Cl)cc3)cs2)C(=O)C1` the Potency was active: 7.94 µM.
`CCOC(=O)/C(C(=O)Nc1ccc(Br)cc1)=C1/NC(C)(C)Cc2ccccc21` was tested, and the Potency was inconclusive: 31.6 µM [inhibitor, single point].
`COc1ccccc1N1CCN(C(=O)C2C3C=CC4(CN(Cc5ccccc5Cl)C(=O)C24)O3)CC1` (stereo unspecified) was tested, and the Potency was inconclusive: 31.6 µM [activator, single point].
In the case of `COc1ccc(-n2c(SC)nnc2-c2c[nH]c3ccccc23)cc1`, the Potency is reported as inconclusive: 39.8 µM [inhibitor, single point].
For `COc1ccc(CNC(=O)CCC(=O)N2CCSc3ccccc32)cc1`, the max response, negative = inhibition was inactive: -5.93%.
With `CCn1cc(C(=O)NCc2cccnc2)c(=O)c2cc(F)c(N3CCN(C(=O)c4ccco4)CC3)cc21` the Potency was inconclusive: 31.6 µM [activator, single point].
With `O=C(Nc1nnc(CCS(=O)(=O)c2ccc(Br)cc2)s1)c1ccc([N+](=O)[O-])cc1` the Potency was active: 5.01 µM.
With `Cc1ccc(NC(=O)CCC(=O)NNC(=O)C(c2ccccc2)c2ccccc2)c(C)c1` the Potency was inconclusive: 39.8 µM [inhibitor, single point].
In the case of `CCCN(C(=O)CSc1cc(-c2ccccc2)c2ccc(OC)cc2n1)C1CCS(=O)(=O)C1` (stereo unspecified), the Potency is reported as inconclusive: 25.1 µM [activator, single point].
With `Clc1ccc(-c2cc(-c3nnc4n3CCCCC4)c3ccccc3n2)cc1` the Potency was inconclusive: 39.8 µM [activator, single point].
In the case of `Cc1ccccc1OCC(=O)N/N=C/c1cc2ccccc2nc1Cl`, the max response, negative = inhibition is reported as inactive: 1.38%.
